Reference: the supplement of paper PMC8728848
The other results are listed elsewhere or left out.

Tests used:
Assay in all cases: glycan array binding signal (z-score within array); higher = stronger binding
Settings in all cases: glycan notation: IUPAC condensed, linker removed
[1] = target: GlcNAc(b1-3)Gal(b1-4)GlcNAc(b1-3)[GlcNAc(b1-3)Gal(b1-4)GlcNAc(b1-3)]GalNAc
In short: (§1)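 Glycan array data were curated from 3228 arrays in the Consortium for Functional Glycomics database and kept only where the protein sequence was available. Glycan names were converted to IUPAC-condensed notation, and columns mapping to the same glycan were averaged. The binding signal is a within-array Z-score, averaged across arrays of the same protein sequence at different concentrations or buffers and across linkers. Negative Z-scores can be read as non-binding.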

[2] = target: GlcNAc(b1-3)Gal(b1-4)GlcNAc(b1-6)[Gal(b1-3)]GalNAc
In short: as §1

[3] = target: GlcNAc(b1-3)Gal(b1-4)GlcNAc(b1-6)[GlcNAc(b1-3)Gal(b1-3)]GalNAc
In short: as §1

[4] = target: GlcNAc(b1-3)Gal(b1-4)GlcNAc(b1-6)[GlcNAc(b1-3)]Gal(b1-4)GlcNAc
In short: as §1

[5] = target: GlcNAc(b1-3)GalNAc
In short: as §1

[6] = target: GlcNAc(b1-3)Man
In short: as §1

[7] = target: GlcNAc(b1-3)[GlcNAc(b1-4)][GlcNAc(b1-6)]GlcNAc
In short: as §1

[8] = target: GlcNAc(b1-3)[GlcNAc(b1-6)]Gal(b1-4)GlcNAc
In short: as §1

[9] = target: GlcNAc(b1-3)[GlcNAc(b1-6)]Gal(b1-4)GlcNAc(b1-3)[GlcNAc(b1-6)]Gal(b1-4)GlcNAc(b1-3)Gal(b1-4)Glc
In short: as §1

[10] = target: GlcNAc(b1-3)[GlcNAc(b1-6)]GalNAc
In short: as §1

[11] = target: GlcNAc(b1-3)[GlcNAc(b1-6)]GlcNAc(b1-4)GlcNAc
In short: as §1

[12] = target: GlcNAc(b1-4)Fuc
In short: as §1

[13] = target: GlcNAc(b1-4)Gal(b1-4)GlcNAc
In short: as §1

[14] = target: GlcNAc(b1-4)GlcNAc
In short: as §1

[15] = target: GlcNAc(b1-4)GlcNAc(b1-4)GlcNAc
In short: as §1

[16] = target: GlcNAc(b1-4)GlcNAc(b1-4)GlcNAc(b1-4)GlcNAc(b1-4)GlcNAc
In short: as §1

[17] = target: GlcNAc(b1-4)GlcNAc(b1-4)GlcNAc(b1-4)GlcNAc(b1-4)GlcNAc(b1-4)GlcNAc
In short: as §1

[18] = target: GlcNAc(b1-4)[GlcNAc(b1-6)]GalNAc
In short: as §1

[19] = target: GlcNAc(b1-6)Gal(b1-4)GlcNAc
In short: as §1

[20] = target: GlcNAc(b1-6)GalNAc
In short: as §1

[21] = target: GlcNAc3Prop(b1-4)GlcNAc
In short: as §1

[22] = target: GlcNAc6S(b1-3)Gal(b1-4)GlcNAc
In short: as §1

[23] = target: HexA(a1-3)GalNAc4S(b1-4)GlcA(b1-3)GalNAc4S
In short: as §1

[24] = target: HexA(a1-3)GalNAc4S(b1-4)GlcA(b1-3)GalNAc4S(b1-4)GlcA(b1-3)GalNAc4S(b1-4)GlcA(b1-3)GalNAc4S(b1-4)GlcA(b1-3)GalNAc4S(b1-4)GlcA(b1-3)GalNAc4S(b1-4)GlcA(b1-3)GalNAc4S
In short: as §1

[25] = target: HexA(a1-3)GalNAc4S(b1-4)IdoA(a1-3)GalNAc4S
In short: as §1

[26] = target: HexA(a1-3)GalNAc4S(b1-4)IdoA(a1-3)GalNAc4S(b1-4)IdoA(a1-3)GalNAc4S(b1-4)IdoA(a1-3)GalNAc4S(b1-4)IdoA(a1-3)GalNAc4S(b1-4)IdoA(a1-3)GalNAc4S(b1-4)IdoA(a1-3)GalNAc4S
In short: as §1

[27] = target: HexA(a1-3)GalNAc6S(b1-4)GlcA(b1-3)GalNAc6S
In short: as §1

[28] = target: HexA(a1-3)GalNAc6S(b1-4)GlcA(b1-3)GalNAc6S(b1-4)GlcA(b1-3)GalNAc6S(b1-4)GlcA(b1-3)GalNAc6S(b1-4)GlcA(b1-3)GalNAc6S(b1-4)GlcA(b1-3)GalNAc6S(b1-4)GlcA(b1-3)GalNAc6S
In short: as §1

[29] = target: HexA2S(a1-4)GlcNS6S
In short: as §1

[30] = target: Kdn(a2-3)Gal(b1-3)GalNAc
In short: as §1

[31] = target: Kdn(a2-3)Gal(b1-3)GalNAc(b1-4)[Kdn(a2-3)]Gal(b1-4)Glc
In short: as §1

[32] = target: Kdn(a2-3)Gal(b1-3)GlcNAc
In short: as §1

[33] = target: Kdn(a2-3)Gal(b1-4)Glc
In short: as §1

[34] = target: Kdn(a2-3)Gal(b1-4)GlcNAc
In short: as §1

[35] = target: Kdn(a2-3)Gal(b1-4)[Fuc(a1-3)]GlcNAc
In short: as §1

[36] = target: Kdn(a2-3)Gal(b1-4)[Fuc(a1-3)]GlcNAc(b1-3)Gal
In short: as §1

[37] = target: Kdn(a2-3)Gal(b1-4)[Fuc(a1-3)]GlcNAc(b1-3)Gal(b1-4)Glc
In short: as §1

[38] = target: Kdn(a2-3)Gal(b1-4)[Rha(a1-3)]GlcNAc(b1-3)Gal(b1-4)Glc
In short: as §1

[39] = target: Kdn(a2-3)[GalNAc(b1-4)]Gal(b1-4)Glc
In short: as §1

[40] = target: Kdn(a2-6)Gal
In short: as §1

[41] = target: Kdn(a2-6)Gal(b1-4)GlcNAc
In short: as §1

[42] = target: Man(a1-2)Man
In short: as §1

[43] = target: Man(a1-2)Man(a1-2)Man(a1-3)Man
In short: as §1

[44] = target: Man(a1-2)Man(a1-2)Man(a1-3)[Man(a1-2)Man(a1-3)[Man(a1-2)Man(a1-6)]Man(a1-6)]Man(b1-4)GlcNAc(b1-4)GlcNAc
In short: as §1

[45] = target: Man(a1-2)Man(a1-2)Man(a1-3)[Man(a1-2)Man(a1-6)[Man(a1-3)]Man(a1-6)]Man(b1-4)GlcNAc(b1-4)GlcNAc
In short: as §1

B1: CLEC5A (Homo sapiens), Q9NY25 (protein)
chain: MNWHMIISGLIVVVLKVVGMTLFLLYFPQIFNKSNDGFTTTRSYGTVSQIFGSSSPSPNGFITTRSYGTVCPKDWEFYQARCFFLSTSESSWNESRDFCKGKGSTLAIVNTPEKLKFLQDITDAEKYFIGLIYHREEKRWRWINNSVFNGNVTNQNQNFNCATIGLTKTFDAASCDISYRRICEKNAK
**Q.** B1 was tested. Which “glycan array binding signal (z-score)” value [1] did it give?
**A.** The value was -0.093.

**Q.** And the “glycan array binding signal (z-score)” value [2]?
**A.** Its value is -0.122.

**Q.** What about the “glycan array binding signal (z-score)” value [3] of the same binder?
**A.** Its value is -0.192.

**Q.** What about the “glycan array binding signal (z-score)” value [4] of the same binder?
**A.** The value was -0.094.

**Q.** And the “glycan array binding signal (z-score)” value [5]?
**A.** The value was -0.158.

**Q.** And the “glycan array binding signal (z-score)” value [6]?
**A.** Its value is -0.146.

**Q.** And the “glycan array binding signal (z-score)” value [7]?
**A.** The value was -0.14.

**Q.** And the “glycan array binding signal (z-score)” value [8]?
**A.** Its value is -0.461.

**Q.** And the “glycan array binding signal (z-score)” value [9]?
**A.** The value was 0.355.

**Q.** And the “glycan array binding signal (z-score)” value [10]?
**A.** Its value is -0.407.

**Q.** And the “glycan array binding signal (z-score)” value [11]?
**A.** Its value is 0.038.

**Q.** What about the “glycan array binding signal (z-score)” value [12] of the same binder?
**A.** The value was -0.32.

**Q.** And the “glycan array binding signal (z-score)” value [13]?
**A.** Its value is -0.194.

**Q.** And the “glycan array binding signal (z-score)” value [14]?
**A.** The value was -0.344.

**Q.** And the “glycan array binding signal (z-score)” value [15]?
**A.** The value was 0.162.

**Q.** And the “glycan array binding signal (z-score)” value [16]?
**A.** The value was -0.01.

**Q.** What about the “glycan array binding signal (z-score)” value [17] of the same binder?
**A.** Its value is -0.389.

**Q.** What about the “glycan array binding signal (z-score)” value [18] of the same binder?
**A.** Its value is -0.073.

**Q.** And the “glycan array binding signal (z-score)” value [19]?
**A.** Its value is -0.037.

**Q.** What about the “glycan array binding signal (z-score)” value [20] of the same binder?
**A.** The value was 0.055.

**Q.** What about the “glycan array binding signal (z-score)” value [21] of the same binder?
**A.** The value was -1.36.

**Q.** What about the “glycan array binding signal (z-score)” value [22] of the same binder?
**A.** Its value is 0.188.

**Q.** What about the “glycan array binding signal (z-score)” value [23] of the same binder?
**A.** Its value is -0.32.

**Q.** What about the “glycan array binding signal (z-score)” value [24] of the same binder?
**A.** Its value is -0.32.

**Q.** And the “glycan array binding signal (z-score)” value [25]?
**A.** Its value is 0.066.

**Q.** What about the “glycan array binding signal (z-score)” value [26] of the same binder?
**A.** Its value is 0.644.

**Q.** And the “glycan array binding signal (z-score)” value [27]?
**A.** Its value is -0.32.

**Q.** What about the “glycan array binding signal (z-score)” value [28] of the same binder?
**A.** The value was 1.03.

**Q.** What about the “glycan array binding signal (z-score)” value [29] of the same binder?
**A.** Its value is -0.32.

**Q.** And the “glycan array binding signal (z-score)” value [30]?
**A.** The value was 0.745.

**Q.** And the “glycan array binding signal (z-score)” value [31]?
**A.** The value was -0.32.

**Q.** And the “glycan array binding signal (z-score)” value [32]?
**A.** Its value is 0.076.

**Q.** What about the “glycan array binding signal (z-score)” value [33] of the same binder?
**A.** Its value is -0.175.

**Q.** What about the “glycan array binding signal (z-score)” value [34] of the same binder?
**A.** Its value is -0.343.

**Q.** And the “glycan array binding signal (z-score)” value [35]?
**A.** The value was 0.14.

**Q.** And the “glycan array binding signal (z-score)” value [36]?
**A.** The value was -0.32.

**Q.** And the “glycan array binding signal (z-score)” value [37]?
**A.** The value was -0.175.

**Q.** And the “glycan array binding signal (z-score)” value [38]?
**A.** Its value is -0.32.

**Q.** And the “glycan array binding signal (z-score)” value [39]?
**A.** Its value is -0.32.

**Q.** What about the “glycan array binding signal (z-score)” value [40] of the same binder?
**A.** Its value is -0.32.

**Q.** And the “glycan array binding signal (z-score)” value [41]?
**A.** Its value is -0.153.

**Q.** What about the “glycan array binding signal (z-score)” value [42] of the same binder?
**A.** Its value is 1.03.

**Q.** What about the “glycan array binding signal (z-score)” value [43] of the same binder?
**A.** The value was -0.201.

**Q.** And the “glycan array binding signal (z-score)” value [44]?
**A.** Its value is -0.127.

**Q.** And the “glycan array binding signal (z-score)” value [45]?
**A.** The value was -0.32.
